Experimental data taken from PubChem BioAssay AID686978 (National Center for Advancing Translational Sciences (NCATS), 2013).
In all, about 420,000 compounds went through this assay and about 64,000 (15%) were called active. Inconclusive results, whose numbers are uncertain, are shown with a selection of clear calls. Calls follow the shape of the dose curve; as a rule, active = well fitted inhibition curve with a large enough effect; inconclusive = small, poorly fitted or top-dose-only effect; inactive = flat fitted curve, though single readings scatter. No potency is given beside an inconclusive call; the fits are too rough.

Assay: qHTS for Inhibitors of human tyrosyl-DNA phosphodiesterase 1 (TDP1): qHTS in cells in absence of CPT; also: nearly all actives have a fitted effect of over 55% in size
Conditions: DT40 Tdp1-/- hTDP1 cells, no CPT, ATP luminescence, 48 h; activity change, negative = growth inhibition: at 46.2 µM (top of the series) unless noted
How it was run: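 Stably hTDP1-transfected Tdp1-null chicken DT40 cells were treated with library compounds minus camptothecin and grown for at least 48 hr at 37 °C, after which cellular ATP was quantified by luminescence.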
% is scaled to controls: 0 for no effect and ±100 for the full control effect; potency is read from the fitted curve at half-maximal effect; tags tell the direction and shape of the fitted curve.

Compound | Potency | activity change, negative = growth inhibition
COC(=O)c1cc2sc(C)cc2n1CC(=O)Nc1ccc(C)cc1Cl | inconclusive [inhibitor, single point] | –
COc1ccc(Cl)cc1Nc1nc(Cl)nc(NCCO)n1 | inconclusive [inhibitor, single point] | –
COc1ccc(C(=O)NNC(=S)NC(=O)c2cc(-c3ccccc3)nc3ccccc23)cc1 | active: 16.4 µM | –
Cc1cc2c(Nc3ccccc3)ncnc2s1 | inconclusive [inhibitor, partial curve, poor fit] | –
Clc1ncnc2scc(-c3ccc(Br)cc3)c12 | inconclusive [inhibitor, partial curve, poor fit] | –
CCC(C)(C)NC(=O)C(c1ccc(OC)cc1)N(C(=O)CCC(=O)Nc1cc(C)on1)c1ccc(OC)c(OC)c1 (configuration not stated) | inconclusive [inhibitor, single point] | –
O=C(NC(=S)Nc1ccc(S(=O)(=O)N2CCCCCC2)cc1)c1cccs1 | active: 20.6 µM | –
O=C(c1ccccc1)N1CCCC(C(=O)N2CCCCC2)C1 (configuration not stated) | inactive | –
COc1cc(C(=O)NNC(=O)c2ccc3ccccc3n2)cc(OC)c1OC | inconclusive [inhibitor, single point] | –
COC(=O)c1c(S(C)(=O)=O)nc(-c2ccccc2)[nH]c1=O | inactive | –
COc1ccc2c(CC(=O)Nc3ccc(OC)c(NS(=O)(=O)c4ccc(F)cc4)c3)coc2c1 | inactive | –
C=C1CCN([C@@H](CC(C)C)C(=O)NCc2ccco2)S(=O)(=O)c2ccccc21 | inconclusive [inhibitor, single point] | –
O=C(Nc1ccc(Oc2ccccc2)cc1)N[C@@H](Cc1ccccc1)C(=O)O | inactive | –
COc1ccc(N2CCN(Cc3cc4c(cc3O)CCC4)CC2)cc1 | active: 20.6 µM | –
Cc1oc2c(cc(NS(=O)(=O)c3ccc(F)cc3)c3ccccc32)c1C(=O)OCc1ccccc1 | inconclusive [inhibitor, single point] | –
Nc1nc(SCC(=O)N2CCCC2)[nH]c(=O)c1NC(=O)c1cccs1 | inconclusive [inhibitor, single point] | –
CC1CCCN(S(=O)(=O)c2ccc(C(=O)NC(C)c3ccccc3)cc2)C1 (configuration not stated) | inactive | –
c1ccc(CSc2ccc3nnc(-c4cccnc4)n3n2)cc1 | inconclusive [inhibitor, single point] | –
O=C1c2cccc(OCC(=O)N3CCCc4ccccc43)c2CCN1Cc1cccnc1 | active: 9.2 µM | –
c1ccc(-c2nc(NCCCn3ccnc3)c3oc4ccccc4c3n2)cc1 | inconclusive [inhibitor, single point] | –
Cc1ccccc1-c1ccc(CN2CCc3nnc(C(NS(C)(=O)=O)C(C)C)n3CC2)cc1 (configuration not stated) | – | inconclusive: -30.1% [inhibitor]
O=C(CSc1nc(-c2ccccc2)cc(=O)[nH]1)N1CCc2ccccc21 | active: 16.4 µM | –
COc1ccccc1Nc1ncc(C(C)=O)c(C)n1 | inconclusive [inhibitor, single point] | –
Cc1cccc(-n2cnc(C(=O)NNC(=S)Nc3ccccc3)c2)n1 | active: 23.1 µM | –

Compound | Potency | activity change, negative = growth inhibition
Cc1cc(C)c2c(CC(=O)N(Cc3ccc(Cl)cc3)Cc3ccco3)coc2c1 | active: 8.2 µM | –
O=C(CSc1nnc(CNC(=O)c2c(F)cccc2F)o1)NCc1ccccc1Cl | inactive | –
O=C(Nc1ccc(S(=O)(=O)Nc2ncccn2)cc1)C1CC(=O)N(c2ccc(Cl)cc2)C1 (configuration not stated) | inactive | –
COc1cccc(-n2c(SCC(=O)Nc3cc(C)on3)nc3ccccc3c2=O)c1 | inconclusive [inhibitor, single point] | –
CCc1ncc(CO)n1Cc1cccc2ccccc12 | inconclusive [inhibitor, partial curve] | –
Cc1cccc(-n2nnnc2SCC(=O)Nc2ccc(N3CCN(C)CC3)cc2)c1 | inconclusive [inhibitor, single point] | –
COc1cc(S(=O)(=O)N(C)C2CCCCC2)c(C)cc1C | inactive | –
COc1ccc(-c2cc(C(F)(F)F)nc(SCC(=O)NCCc3ccccc3)n2)cc1 | inconclusive [inhibitor, partial curve, poor fit] | –
O=C(CNCc1ccco1)Nc1cc(S(=O)(=O)N2CCOCC2)ccc1N1CCCC1 | inactive | –
O=C(Nc1ccccc1)Nc1nccs1 | inconclusive [inhibitor, single point] | –
CCN1C(=O)/C(=C2\SC(=S)N(CCCOC)C2=O)c2ccccc21 | inactive | –
COc1ccc(Cl)cc1NC(=O)Cn1nnc(C(=O)NCCc2ccc(OC)c(OC)c2)c1N | inconclusive [inhibitor, single point] | –
Cc1ccc(NC(=O)Cn2cc(S(=O)(=O)Cc3ccc(F)cc3)c3ccccc32)cc1Cl | inconclusive [inhibitor, single point] | –
Cc1c(Cl)cccc1NC(=O)NC1CCCCC1 | inactive | –
Cc1nn(-c2ccccc2)c2c1c(C)c(CCC(=O)NCC1CCCO1)c(=O)n2C (configuration not stated) | inconclusive [inhibitor, partial curve] | –
CCCn1cc(NC(=O)C2CC(c3cccc(Br)c3)=NO2)cn1 (configuration not stated) | inconclusive [inhibitor, single point] | –
CCOC(=O)C1CCN(C/C=C/c2ccccc2)CC1 | inactive | –
O=C(/C=C/c1ccccc1)c1ccccc1O | inconclusive [inhibitor, partial curve, poor fit] | –
CCc1ccc(NC(=O)CSC2=C(C#N)C(c3ccco3)C3=C(CCCC3=O)N2)cc1 (configuration not stated) | inconclusive [inhibitor, single point] | –
COc1cccc(Nc2ncnc3ccccc23)c1 | inconclusive [inhibitor, partial curve] | –
O=C(CSc1ccc2nnc(CCNC(=O)c3ccccc3)n2n1)NCCc1ccccc1 | inactive | –
COc1cccc(NC(=S)N2CCN(Cc3ccccc3)CC2)c1 | inactive | –
COc1ccc(-c2cc(C(F)(F)F)c3c(n2)sc2c(O)cc(=O)[nH]c23)c(OC)c1 | inconclusive [inhibitor, partial curve, poor fit] | –
